± gives the standard deviation of the averaged measurements. The list shows a part of the results.
Test system: PfAP2-EXP AP2 domain (GST-tagged)
Experiment: gcPBM binding intensity (ln(normalized median fluorescence intensity)); higher = stronger DNA binding
Method in brief: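 The binding buffer was 1× PBS containing 1% milk, 0.2 mg/ml BSA, 0.5% salmon testes DNA and 0.03% Triton X-100. In it, GST-tagged P. falciparum DNA-binding domains expressed in E. coli were applied for 1 h to an Agilent 4 × 180k array of primer-extended double-stranded 36-bp intergenic genomic probes plus negative controls. Binding intensity, read with Alexa488 anti-GST antibody and a 488 nm scan, is the highest Masliner-normalised natural-log median intensity across replicate spots of either probe orientation.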

Row | Sequence | gcPBM binding intensity (ln)
1 | ACTTATAAAAACATATACCCCATCGCATTTTTTCCA [XGTACX_negctrl_site177] | 8.73 ± 0.44
2 | TGTAATATAAAATTTTGTACTCAAAAATTTATATAT [XGTACX_site3252] | 8.18 ± 0.23
3 | AATTTTTTATATGTCACACATTTATTATTATTATTA [CACACA_site4198] | 8.55 ± 0.38
4 | TATATTTATAGGTACACACACACATATAAATAAATA [CACACA_site6345] | 8.65 ± 0.37
5 | TTTATTAGTAATTATACACACATATAAAATGAATAA [CACACA_site6754] | 8.28 ± 0.45
6 | ATAAAATTATATTTTGCATGCAGGCCTTTTTCTTAA [TGCATGCA_site1030] | 9.94 ± 0.14
7 | AAAAAAAAAAAAAACACACACATATATATATATATA [CACACA_site1891] | 10.2 ± 0.3
8 | TTCCAAAAAGTTATTACACACATATGTGCACATATA [CACACA_site6465] | 8.84 ± 0.092
9 | TTCCAAACCTCATTATGGAAAATAAAAAAATAAAAA [XGTACX_negctrl_site17] | 8.39 ± 0.54
10 | AGAATATTATATTATGCATGCATATAGAAAAATATA [TGCATGCA_site302] | 9.75 ± 0.27
11 | ATAAAATATTTTTGAACATGCAGGTAAAAAATAAAA [TGCATGCA_site1019] | 8.97 ± 0.33
12 | TGTATAAGTATTAATACACACACAAAATAATAAAAA [CACACA_site9156] | 8.91 ± 0.35
13 | TACTTACATTATTTATTTATATAAAAAGTTAATTAT [XGTACX_negctrl_site433] | 8.26 ± 0.42
14 | ATAATTAACAAATACACACACACACCCCCACAAAAA [CACACA_site518] | 10.1 ± 0.33
15 | TATATATTTTTTTTTTGTACTCACAATATATGTATG [XGTACX_site8024] | 8.74 ± 0.5
16 | AAATTAAAATATAATACACACATAAAAAAAAAAAAA [CACACA_site4183] | 8.39 ± 0.61
17 | AGTATTCATAAAAATACACACATGGAAAAATAAACT [CACACA_site6796] | 8.96 ± 0.4
18 | TACATAATACATATAACACACACAATTATACATAAA [CACACA_site9060] | 8.69 ± 0.39
19 | ATAATTACAAAATAAACACACATATAGATTTATATG [CACACA_site6343] | 8.51 ± 0.25
20 | CACATATATATGTGTGCATGTTGTATTATATATTTA [TGCATGCA_site632] | 8.96 ± 0.27
21 | ATATAATTAAAATGCTCACACACATAAAAAAAAATT [CACACA_site2148] | 8.43 ± 0.55
22 | GTACATATATACATTACACACGGTTTGATTTAAAAA [CACACA_site3379] | 8.66 ± 0.29
23 | ATTTTATTTTTTAAAGGTACAGTTACAGCTTATATA [XGTACX_site7513] | 8.45 ± 0.44
24 | TCTTTTAAAAAAAAAGGAGGAACATAAAAAGTAGAA [XGTACX_negctrl_site272] | 8.85 ± 0.47

From the supplement of paper PMC11417369
